About 2,200 (0.71%) of roughly 310,000 compounds showed an effect of 50% or more. Effects have a minus sign here. The list shows a part of the results.
Each molecule was assayed against human ether-à-go-go-related gene (hERG) potassium channel (human, UniProt Q12809) (assay: primary screen, population patch clamp on CHO cells stably expressing hERG).
human ether-à-go-go-related gene (hERG) potassium channel, sequence (Q12809 whole entry, looked up): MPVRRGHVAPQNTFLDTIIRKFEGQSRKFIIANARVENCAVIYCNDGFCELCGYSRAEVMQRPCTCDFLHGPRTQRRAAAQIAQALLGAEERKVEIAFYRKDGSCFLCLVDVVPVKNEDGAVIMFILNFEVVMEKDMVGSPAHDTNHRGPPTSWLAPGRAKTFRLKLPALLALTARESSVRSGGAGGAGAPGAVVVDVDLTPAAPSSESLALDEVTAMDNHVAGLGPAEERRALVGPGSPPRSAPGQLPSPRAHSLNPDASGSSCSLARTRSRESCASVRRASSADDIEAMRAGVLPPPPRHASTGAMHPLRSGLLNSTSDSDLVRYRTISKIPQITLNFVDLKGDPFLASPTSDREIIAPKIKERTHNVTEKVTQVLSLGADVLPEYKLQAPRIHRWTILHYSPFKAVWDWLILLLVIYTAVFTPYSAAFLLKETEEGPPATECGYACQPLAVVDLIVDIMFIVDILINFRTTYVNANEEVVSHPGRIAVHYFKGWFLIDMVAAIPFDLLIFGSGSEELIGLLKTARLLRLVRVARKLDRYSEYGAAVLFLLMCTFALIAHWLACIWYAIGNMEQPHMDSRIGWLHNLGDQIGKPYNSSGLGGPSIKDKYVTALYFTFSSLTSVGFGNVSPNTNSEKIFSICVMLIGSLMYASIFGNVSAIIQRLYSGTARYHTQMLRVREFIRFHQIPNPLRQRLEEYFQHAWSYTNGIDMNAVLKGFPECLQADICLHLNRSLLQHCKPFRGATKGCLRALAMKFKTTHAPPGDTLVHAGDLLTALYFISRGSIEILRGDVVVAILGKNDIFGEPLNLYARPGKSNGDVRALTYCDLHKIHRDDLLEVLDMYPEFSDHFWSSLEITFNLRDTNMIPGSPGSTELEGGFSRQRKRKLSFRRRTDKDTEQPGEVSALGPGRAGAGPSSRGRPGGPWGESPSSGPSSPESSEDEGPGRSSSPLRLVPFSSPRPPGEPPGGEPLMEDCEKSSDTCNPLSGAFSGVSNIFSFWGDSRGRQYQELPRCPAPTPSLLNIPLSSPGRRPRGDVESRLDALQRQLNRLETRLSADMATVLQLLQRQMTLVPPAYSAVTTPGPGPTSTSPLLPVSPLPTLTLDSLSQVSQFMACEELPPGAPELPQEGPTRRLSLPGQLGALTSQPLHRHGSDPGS

| SMILES | hERG current change (%, negative = inhibition) at 1uM [%] |
| --- | --- |
| CCOc1ccc(S(=O)(=O)N2CCC(C(=O)NCc3cccnc3)CC2)cc1 | -3.84 |
| CCCCCCn1c(SCCN2CCOCC2)nc2c1c(=O)[nH]c(=O)n2C | -64.1 |
| COC(=O)NNC(=O)C(C)Oc1ccc(Cl)cc1Cl (centres unmarked) | -15.3 |
| CCCC(C)C(=O)Nc1ccc(Cl)cc1Cl (centres unmarked) | 9.32 |
| Cc1ccc2c(c1)/C(=N/O)CCS2 | 7.81 |
| CCOC(=O)C1=C(C)Nc2nc3ccccc3n2C1c1cccs1 (centres unmarked) | 9.54 |
| O=[N+]([O-])c1cc2c(cc1CN1CCN(c3ccccc3F)CC1)OCO2 | 12.8 |
| Cc1cc(C)n(-c2nnc3c4ccccc4n(C)c3n2)n1 | 10.2 |
| O=S1(=O)CCN2C(c3ccco3)=CSC2=N1 | 6.12 |
| COc1ccc2c3c(cccc13)C(=O)CC2 | 17.1 |
| CCc1ccc(C(=O)COC(=O)C2CCN(c3ccc(C(F)(F)F)cn3)CC2)cc1 | 5.13 |
| COc1ccc(Cc2n[nH]c(=S)n2NC(=O)Nc2ccc(C)cc2)cc1 | -2.1 |
| CC(C)c1nnc(NC(=O)CCC(=O)NCc2cccs2)s1 | 8.72 |
| Cc1ccc(Oc2ncc(-c3ccc(Cl)cc3)cn2)cc1 | 11.8 |
| Cc1nn(Cc2ccccc2)c(C)c1C(=O)O | -7.39 |
| Cc1c(NC(=O)OCc2ccccc2)c(=O)n(-c2ccccc2)n1C | 12.2 |
| CCCN(Cc1cc2ccc(C)cc2[nH]c1=O)C(=O)c1ccccn1 | 3.51 |
| CN(Cc1cccs1)C(=O)CCCc1c[nH]c2ccccc12 | 4.34 |
| COc1ccc(C(=O)NCCSCc2ccc(C)cc2)cc1 | 8.09 |
| O=S(=O)(c1ccccc1)N1CN2CCN(C2)C1 | 1.04 |
| O=C(CCN1CCN(c2ccccc2)CC1)Nc1ccccc1F | 14.5 |
| CCC/C(O)=C1\C(=O)CC(C)(C)CC1=NCc1ccccc1 | 2.91 |
| Cn1cccc1C(=O)OCC(=O)NC(=O)NC1CCCCC1 | 9.6 |
| CCOC(=O)c1sc2c(c1C)C(c1cccs1)C1=C(CCCC1=O)N2 (centres unmarked) | 6.25 |

| SMILES | hERG current change (%, negative = inhibition) at 1uM [%] |
| --- | --- |
| C=CC[n+]1c(C)csc1Nc1cccc(Br)c1.[Br-] | 13.5 |
| CCc1cc2c(=O)n(CCCOC)c(SCC(=O)Nc3oc(C)c4c(C)n[nH]c(=O)c34)nc2s1 | 4.66 |
| O=C(NCc1csc(-c2cccs2)n1)C1CC1 | 13.3 |
| COCCn1c(SCC(=O)Nc2ccccc2OC)nnc1-c1ccco1 | 9.5 |
| C=CCNC(=O)/C(C#N)=C\c1cc(Cl)c(O)c(OCC)c1 | 2.98 |
| Clc1ccc(-c2csc(=Nc3cccnc3)n2CCCn2ccnc2)cc1Cl | -22.6 |
| Cc1cc(=O)[nH]c(S)c1C#N | 6.3 |
| C/C(Cn1nnc([N+](=O)[O-])n1)=N\NC(=O)c1ccc(O)cc1 | 12.5 |
| CC(C)(C)n1nnnc1C(c1ccc(C(F)(F)F)cc1)N(Cc1ccccc1)Cc1ccco1 (centres unmarked) | 12.6 |
| FC(F)(F)c1ccc(-c2csc(-c3ccno3)n2)cc1 | 11.9 |
| Cc1onc(-c2ccccc2)c1C(=O)NC(=S)Nc1sc2c(c1C#N)CCC(C)C2 (centres unmarked) | 12.8 |
| CC(C)(C)c1ccc(S(=O)(=O)N2CCC(O)(c3ccc(Cl)cc3)CC2)cc1 | 2.78 |
| CN(CCOc1ccccc1)C(=O)c1ccc2c(c1)OCO2 | -0.138 |
| O=C(O)c1ccc(O)c(O)c1 | 13.7 |
| CCOC(=O)c1c(NC(=O)c2ccc(N3C(=O)C4C5C=CC(C5)C4C3=O)cc2)sc2c1CCCC2 (centres unmarked) | 15.2 |
| CCOc1ccc(NC(=S)N2CCC(C(O)(c3ccccc3)c3ccccc3)CC2)cc1 | -0.891 |
| CCOc1ccc2c(c1)c1nc3ccccc3nc1n2C | 12.2 |
| CCCCN(CC)Cc1c(C)[nH]c2ccccc2c1=O | -3.42 |
| NNC(=O)COc1ncn(-c2ccccc2)n1 | 16.2 |
| O=C(C1=NN[C@@H]2C(=O)N(c3cccc(C(F)(F)F)c3)C(=O)[C@H]12)c1ccc2ccccc2n1 | 0.397 |
| COc1ccc(CCCc2nnc(SCC(=O)Nc3cccc(C)c3)o2)cc1 | 3.89 |
| N#CC1=C(N)N(c2ccc(Cl)c(Cl)c2)C(=O)C1 | 11.3 |
| O=c1c2c3c(sc2nc2sc(C4CC4)nn12)CCCC3 | -9.33 |
| CC(C)Cn1c(SCC(=O)NC(=O)NC2CCCC2)nc2ccccc21 | 2.14 |

| SMILES | hERG current change (%, negative = inhibition) at 1uM [%] |
| --- | --- |
| CCN(CC(=O)NCc1cccs1)c1nnnn1-c1ccccc1 | -4.58 |
| CCCCCCn1c(=O)c(C(=O)Nc2nnc(C)s2)c(O)c2ccccc21 | 12 |
| CSc1ccc(S(=O)(=O)N2CCC(C(=O)Nc3ccccc3C(F)(F)F)CC2)cc1 | 11.7 |
| O=C(NCc1ccc2c(c1)OCO2)c1cc(-c2ccccn2)nc2ccccc12 | 7.16 |
| CCN(CC)CCn1c(=S)[nH]c2cc(C(=O)NCc3ccc(C)cc3)ccc2c1=O | 4.77 |
| Cn1c(SCC(=O)N2CCOCC2)nnc1-c1ccccc1 | 2.77 |
| CC(=O)c1cccc(NC(=O)N2CC(C)OC(C)C2)c1 (centres unmarked) | 13.1 |
| Cn1cnc([N+](=O)[O-])c1N=C(N)N | 11.5 |
| O=C(CSCc1c(F)cccc1F)Nc1ccccc1 | 15 |
| CCOc1ccc(-n2nnnc2-c2nc3ccccc3s2)cc1 | 7.22 |
| O=C(O)CN1C(=O)CN=C(c2ccccn2)c2cc(Cl)ccc21 | 4.75 |
| O=c1nc(-c2ccccc2)cc(C(F)(F)F)[nH]1 | 21.3 |
| Cc1csc2nc(O)c(C(=O)NCC3CCCO3)c(=O)n12 (centres unmarked) | 14.3 |
| C=CCC(CC=C)(NC(=O)c1ccccc1)c1ccccc1 | 9.7 |
| COc1ccc(CCNC(=O)Cn2nc([N+](=O)[O-])c(Br)c2C)cc1OC | 13.1 |
| Cc1ccc(CC(=O)NCc2ccc(F)cc2)cc1 | 13.3 |
| CCCc1nnc(SCC(=O)Nc2cccc(Cl)c2Cl)o1 | 11.4 |
| CCN(CC(=O)NCc1ccc(F)cc1)C(=O)C1CCN(C(=O)Nc2ccccc2)CC1 | -0.883 |
| CNC(=O)Nc1cc(C(C)(C)C)no1 | 6.89 |
| COc1cc(OC)cc(C(=O)NNC(=O)C(=O)Nc2cc(OC)c(Cl)cc2OC)c1 | 21.9 |
| Cn1c(=NC(=O)CSCC(=O)N2CCCC2)sc2ccccc21 | 6.01 |
| Cc1ccc(C(=O)/C=C2\NCC(C)NC2=O)cc1 (centres unmarked) | 12.9 |
| CN(Cc1nc2ccccc2n1C)C(=O)c1ccco1 | 16.2 |
| CCOC(=O)C1CCCN(C(=O)CSCc2ccccc2)C1 (centres unmarked) | 12.5 |

| SMILES | hERG current change (%, negative = inhibition) at 1uM [%] |
| --- | --- |
| CC1c2cc3c(cc2CCN1CC(=O)Nc1ccc(S(=O)(=O)N2CCCC2)cc1)OCCCO3 (centres unmarked) | 5.47 |
| CNCCCOc1ccc2c(c1)CCC2.O=C(O)C(=O)O | 8.46 |
| Cc1ccc(C2(C)NC(=O)N(CC(=O)Nc3ccc(-c4nc5ccc(C)cc5s4)cc3)C2=O)cc1 (centres unmarked) | 2.26 |
| O=C(Nc1ccc2c(c1)OCCO2)c1coc2ccccc2c1=O | 11.2 |
| Cc1ccc2nc3c(cc2c1)c(NC(=O)c1cccnc1)nn3C | 6.86 |
| CC(=O)N1CCc2cc(C(=O)CN3CCN(c4ccccn4)CC3)ccc21 | -3.17 |
| CCNCC(=O)Nc1ccc(N2CCOCC2)cc1 | 13.2 |
| Cc1nnc(NC(=O)c2sc3ccccc3c2Cl)s1 | 9.06 |
| CC(C)(C)OC(=O)N1CCC[C@H]1C(=O)O | 5 |
| CCOC(=O)c1[nH]c2cc(OC)c(OC)cc2c1NC(=O)c1ccc2c(c1)OCO2 | 6.16 |
| COC(=O)c1c(C)nn(-c2ccccc2)c1N | 5.04 |
| COC(=O)C1(O)CC(C(C)C)=NN1C(=O)c1ccccc1 (centres unmarked) | 17.6 |
| COc1ccc(-c2nc3ccccc3c(=O)n2CCOc2cc(C)ccc2C)cc1 | 10.1 |
| Cc1ccc(CNC(=O)c2ccc3c(=O)c(O)c(-c4ccc(C)cc4)[nH]c3c2)cc1 | 19.6 |
| Cc1ccc(S(=O)(=O)N2CCC(C(=O)Nc3nnc(-c4ccc(F)cc4)s3)CC2)cc1 | -2.31 |
| Cc1ccc(Sc2ncccc2C(=O)O)cc1C | 15.6 |
| CCOc1ccc(S(=O)(=O)N2CCN(C(=O)CN3C(=O)NC4(CCCC4)C3=O)CC2)cc1 | 3.17 |
| CCN1CCCC1CNC(=O)c1cc2c(C)nc3ccccc3c2o1 (centres unmarked) | -0.901 |
| O=C(O)C(Cc1cnc[nH]1)NS(=O)(=O)c1ccc(Br)cc1 (centres unmarked) | 10.8 |
| O=C(CSc1ccccc1)Nc1cccc(NC(=O)c2ccco2)c1 | 9.68 |
| COc1ccc(Cl)cc1C(=O)Nc1cc(=O)n(C)c(=O)n1C | 11.6 |
| O=C(O)C1C2C=CC(C2)C1C(=O)NCCCc1ccccc1 (centres unmarked) | 8.67 |
| Cc1ccc(S(=O)(=O)c2nnn3c2nc(N2CCOCC2)c2ccccc23)cc1 | 4.78 |

— article PMC4336329 (PLoS ONE, 2015)
